{
  "source": "patent US20260242448A1",
  "about": "(INSTITUTE OF MICROBIOLOGY CHINESE ACADEMY OF SCIENCES, published 2026)",
  "binders": {"B1": {"name": "bispecific antibody protein DIA-19 (bispecific antibody)", "chain": "QITLKESGPTLVKPTQTLTLTCTFSGFSLSTSGVGVAWIRQPPGKALEWLALIYWDNDKRSSPSLNNRLTITKDTSKNQVVLTMTNMDPEDTATYYCAHFFSHYDSSNYYYGSWFDPWGQGTLVTVSSGGGGSGGGGS[letters of about 100 residues omitted]FTFGPGTKVDIKGGGGSGGGGSGGGGSGGGGSGGGGSEVQLVESGGGVVQPGGSLRLSCAVSGFTFDDYAMHWVRQAPGKGLDWVSLISGDGSYTYYADSVKGRFTISRDSSKNSLYLQMNSLRTEDTALYYCAKAQTPTLWWLQDAFDIWGQGTMVTVSSGGGGSGGGGSEIVLTQSPGTLSLSPGERATLSCRASQSFDSRYLGWYQQKSGQAPRLLIYGASSRATGIPDRFSGSGSGTDFTLTISRLEPEDFAVYYCQQFGDSPFTFGQGTKLEIKGGGGS[letters of human IgG1 Fc with changes omitted]"}},
  "key": {"[1]": {"biological_target": "T1, S protein of the SARS-CoV-2 prototype strain on pseudo-virus (SARS-CoV-2 prototype strain)", "assay": "cell-based or functional assay"}, "[2]": {"biological_target": "T1, S protein of the SARS-CoV-2 prototype …", "assay": "cell-based or functional assay", "remark": "listed apart in the source"}},
  "data": [
    {"binder": "B1", "values": [
      {"measurement": "Neutralization activity (IC50) against pseudo-virus", "setting": "[1]", "value": 0.734, "unit": "ng/mL"},
      {"measurement": "Neutralization Effects (IC50) against SARS-CoV-2 pseudo-viruses", "setting": "[2]", "value": 0.849, "unit": "ng/mL"}
    ]}
  ]
}
